According to the supplement of paper PMC4996465:

How the values were obtained:
[1] = test system: KB3-1; experiment: viability (% of DMSO control); higher = more viable cells
Description: (§1)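 Eleven-dose screen of the NCATS MIPE 3 library on cells without co-treatment; CellTiter-Glo after 48 h, as % of DMSO wells.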

[2] = test system: Nalm-6; experiment: as above
Description: as §1

OC[C@H]1O[C@H](C[C@@H]1O)[N]2C=NC3=C2\N=C/NC[C@H]3O [Pentostatin]
Settings	viability [%]
[1], 0.00078 µM	107
[1], 0.00234 µM	106
[1], 0.00702 µM	106
[1], 0.0211 µM	101
[1], 0.0632 µM	104
[1], 0.19 µM	102
[1], 0.569 µM	97.6
[1], 1.71 µM	100
[1], 5.12 µM	102
[1], 15.4 µM	99.7
[1], 46.1 µM	92.9
[2], run: 1, 0.00078 µM	122
[2], run: 1, 0.00234 µM	115
[2], run: 1, 0.00702 µM	124
[2], run: 1, 0.0211 µM	117
[2], run: 1, 0.0632 µM	117
[2], run: 1, 0.19 µM	114
[2], run: 1, 0.569 µM	111
[2], run: 1, 1.71 µM	114
[2], run: 1, 5.12 µM	107
[2], run: 1, 15.4 µM	100
[2], run: 1, 46.1 µM	97.3
[2], run: 2, 0.00078 µM	111
[2], run: 2, 0.00234 µM	113
[2], run: 2, 0.00702 µM	110
[2], run: 2, 0.0211 µM	106
[2], run: 2, 0.0632 µM	111
[2], run: 2, 0.19 µM	105
[2], run: 2, 0.569 µM	101
[2], run: 2, 1.71 µM	107
[2], run: 2, 5.12 µM	103
[2], run: 2, 15.4 µM	100
[2], run: 2, 46.1 µM	94.3

CCCCCCCCCCCCCCCCCCOP(=O)([O-])OC1CC[N+](C)(C)CC1 [Perifosine]
Settings	viability [%]
[1], 0.00039 µM	104
[1], 0.00117 µM	102
[1], 0.00351 µM	105
[1], 0.0105 µM	110
[1], 0.0316 µM	106
[1], 0.0948 µM	107
[1], 0.284 µM	106
[1], 0.853 µM	101
[1], 2.56 µM	101
[1], 7.68 µM	99.2
[1], 23 µM	98.3
[2], run: 1, 0.00039 µM	122
[2], run: 1, 0.00117 µM	114
[2], run: 1, 0.00351 µM	124
[2], run: 1, 0.0105 µM	128
[2], run: 1, 0.0316 µM	122
[2], run: 1, 0.0948 µM	118
[2], run: 1, 0.284 µM	113
[2], run: 1, 0.853 µM	124
[2], run: 1, 2.56 µM	110
[2], run: 1, 7.68 µM	112
[2], run: 1, 23 µM	104
[2], run: 2, 0.00039 µM	110
[2], run: 2, 0.00117 µM	108
[2], run: 2, 0.00351 µM	111
[2], run: 2, 0.0105 µM	109
[2], run: 2, 0.0316 µM	108
[2], run: 2, 0.0948 µM	107
[2], run: 2, 0.284 µM	107
[2], run: 2, 0.853 µM	105
[2], run: 2, 2.56 µM	103
[2], run: 2, 7.68 µM	99.6
[2], run: 2, 23 µM	91.9

Nc1nccc(-c2ccc3noc(-c4ccc(Cl)cc4)c3c2)n1 [Pim 1 inhibitor 2]
Settings	viability [%]
[1], 0.00078 µM	106
[1], 0.00234 µM	102
[1], 0.00702 µM	103
[1], 0.0211 µM	103
[1], 0.0632 µM	109
[1], 0.19 µM	110
[1], 0.569 µM	109
[1], 1.71 µM	106
[1], 5.12 µM	105
[1], 15.4 µM	107
[1], 46.1 µM	76.2
[2], run: 1, 0.00078 µM	103
[2], run: 1, 0.00234 µM	107
[2], run: 1, 0.00702 µM	101
[2], run: 1, 0.0211 µM	112
[2], run: 1, 0.0632 µM	118
[2], run: 1, 0.19 µM	115
[2], run: 1, 0.569 µM	128
[2], run: 1, 1.71 µM	123
[2], run: 1, 5.12 µM	111
[2], run: 1, 15.4 µM	115
[2], run: 1, 46.1 µM	80.3
[2], run: 2, 0.00078 µM	109
[2], run: 2, 0.00234 µM	106
[2], run: 2, 0.00702 µM	109
[2], run: 2, 0.0211 µM	112
[2], run: 2, 0.0632 µM	109
[2], run: 2, 0.19 µM	110
[2], run: 2, 0.569 µM	114
[2], run: 2, 1.71 µM	105
[2], run: 2, 5.12 µM	110
[2], run: 2, 15.4 µM	112
[2], run: 2, 46.1 µM	63.4

CCc1ccc(CCOc2ccc(CC3SC(=O)NC3=O)cc2)nc1 (stereo not drawn) [Pioglitazone HCl]
Settings	viability [%]
[1], 0.00078 µM	97.3
[1], 0.00234 µM	94.2
[1], 0.00702 µM	105
[1], 0.0211 µM	94.7
[1], 0.0632 µM	104
[1], 0.19 µM	101
[1], 0.569 µM	98.9
[1], 1.71 µM	88
[1], 5.12 µM	105
[1], 15.4 µM	103
[1], 46.1 µM	6.87
[2], run: 1, 0.00078 µM	101
[2], run: 1, 0.00234 µM	94.3
[2], run: 1, 0.00702 µM	100
[2], run: 1, 0.0211 µM	103
[2], run: 1, 0.0632 µM	110
[2], run: 1, 0.19 µM	107
[2], run: 1, 0.569 µM	107
[2], run: 1, 1.71 µM	106
[2], run: 1, 5.12 µM	93.2
[2], run: 1, 15.4 µM	100
[2], run: 1, 46.1 µM	46.3
[2], run: 2, 0.00078 µM	102
[2], run: 2, 0.00234 µM	104
[2], run: 2, 0.00702 µM	100
[2], run: 2, 0.0211 µM	96.1
[2], run: 2, 0.0632 µM	111
[2], run: 2, 0.19 µM	100
[2], run: 2, 0.569 µM	107
[2], run: 2, 1.71 µM	98.6
[2], run: 2, 5.12 µM	103
[2], run: 2, 15.4 µM	100
[2], run: 2, 46.1 µM	77.7

CC(C)[C@H](CO)Nc1nc(Nc2ccc(C(=O)O)c(Cl)c2)c2ncn(C(C)C)c2n1 [Purvalanol B]
Settings	viability [%]
[1], 0.00078 µM	100
[1], 0.00234 µM	98.8
[1], 0.00702 µM	93
[1], 0.0211 µM	100
[1], 0.0632 µM	101
[1], 0.19 µM	99.1
[1], 0.569 µM	100
[1], 1.71 µM	101
[1], 5.12 µM	96.2
[1], 15.4 µM	105
[1], 46.1 µM	103
[2], run: 1, 0.00078 µM	116
[2], run: 1, 0.00234 µM	112
[2], run: 1, 0.00702 µM	115
[2], run: 1, 0.0211 µM	122
[2], run: 1, 0.0632 µM	115
[2], run: 1, 0.19 µM	122
[2], run: 1, 0.569 µM	127
[2], run: 1, 1.71 µM	122
[2], run: 1, 5.12 µM	121
[2], run: 1, 15.4 µM	117
[2], run: 1, 46.1 µM	121
[2], run: 2, 0.00078 µM	111
[2], run: 2, 0.00234 µM	112
[2], run: 2, 0.00702 µM	117
[2], run: 2, 0.0211 µM	117
[2], run: 2, 0.0632 µM	114
[2], run: 2, 0.19 µM	116
[2], run: 2, 0.569 µM	113
[2], run: 2, 1.71 µM	112
[2], run: 2, 5.12 µM	108
[2], run: 2, 15.4 µM	113
[2], run: 2, 46.1 µM	110

OC1=CC2=C(C(=C1)O)C(=O)\C(=C(/O2)C3=CC(=C(O)C=C3)O)O [Quercetine]
Settings	viability [%]
[1], 0.00078 µM	106
[1], 0.00234 µM	107
[1], 0.00702 µM	101
[1], 0.0211 µM	103
[1], 0.0632 µM	109
[1], 0.19 µM	110
[1], 0.569 µM	107
[1], 1.71 µM	109
[1], 5.12 µM	113
[1], 15.4 µM	105
[1], 46.1 µM	37.1
[2], run: 1, 0.00078 µM	98.4
[2], run: 1, 0.00234 µM	118
[2], run: 1, 0.00702 µM	120
[2], run: 1, 0.0211 µM	114
[2], run: 1, 0.0632 µM	111
[2], run: 1, 0.19 µM	125
[2], run: 1, 0.569 µM	117
[2], run: 1, 1.71 µM	127
[2], run: 1, 5.12 µM	126
[2], run: 1, 15.4 µM	113
[2], run: 1, 46.1 µM	58
[2], run: 2, 0.00078 µM	105
[2], run: 2, 0.00234 µM	103
[2], run: 2, 0.00702 µM	109
[2], run: 2, 0.0211 µM	102
[2], run: 2, 0.0632 µM	115
[2], run: 2, 0.19 µM	113
[2], run: 2, 0.569 µM	109
[2], run: 2, 1.71 µM	111
[2], run: 2, 5.12 µM	106
[2], run: 2, 15.4 µM	99.9
[2], run: 2, 46.1 µM	59.7

Where a name gives a salt, the structure may show the parent alone. Viability of KB3-1 and Nalm-6 cells after 48 h of drug alone (CellTiter-Glo), 11 doses over about 4.5 log units. % of DMSO wells, lower = more cell loss; AC50 from the fitted curve, lower = more potent. No active / inactive call. Nalm-6 was screened in two runs. AC50 is listed only for well-fitted inhibitory curves. KB3-1 is a HeLa-derived carcinoma line, Nalm-6 a B-cell precursor leukaemia line.
